Out of some 220,000 compounds screened, about 16,000 (7.3%) were called active. Inconclusive results, whose numbers are uncertain, are shown with a selection of clear calls. Calls follow the shape of the dose curve; as a rule, active = well fitted inhibition curve with a large enough effect (not every such curve was filed as active); inconclusive = small, poorly fitted or top-dose-only effect, or another doubt; inactive = no such curve, though single readings can be large or run the other way. No potency is given beside an inconclusive call; the fits are too rough.
The compounds below were run against Aldehyde dehydrogenase 1A1 (Homo sapiens) (UniProt P00352) (assay: qHTS Assay for Inhibitors of Aldehyde Dehydrogenase 1 (ALDH1A1)). Details: Purified ALDH1A1, NADH fluorescence, propionaldehyde substrate; series mostly up to 75.3 µM.
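For activity, negative = inhibition in this document: plate controls were no enzyme wells and a reference inhibitor.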
Potency is read from the fitted curve at half-maximal effect; tags tell the direction and shape of the fitted curve.

UniProt P00352, sequence (P00352 whole entry, looked up): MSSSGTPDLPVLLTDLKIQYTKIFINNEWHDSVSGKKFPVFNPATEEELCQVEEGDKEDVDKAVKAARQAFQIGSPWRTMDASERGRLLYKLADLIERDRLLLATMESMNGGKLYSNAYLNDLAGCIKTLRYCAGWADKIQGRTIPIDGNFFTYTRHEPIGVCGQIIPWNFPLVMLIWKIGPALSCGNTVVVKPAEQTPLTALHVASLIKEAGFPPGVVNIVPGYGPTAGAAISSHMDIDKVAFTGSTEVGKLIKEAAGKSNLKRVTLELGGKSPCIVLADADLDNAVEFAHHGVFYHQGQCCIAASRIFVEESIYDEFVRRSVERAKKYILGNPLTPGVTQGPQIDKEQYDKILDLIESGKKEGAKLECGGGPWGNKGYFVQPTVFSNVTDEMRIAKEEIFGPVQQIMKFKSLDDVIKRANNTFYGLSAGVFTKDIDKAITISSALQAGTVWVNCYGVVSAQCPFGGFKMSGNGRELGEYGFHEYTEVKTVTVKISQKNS

SMILES	Potency	activity, negative = inhibition
COc1ccc(Cn2nnnc2CN(Cc2cc3cccc(C)c3[nH]c2=O)C2CCCC2)cc1	inconclusive [inhibitor, single point]	–
CCOC(=O)Cn1c(=O)cnc2ccccc21	inconclusive [inhibitor, partial curve]	–
O=C(OCC(=O)N1CCc2ccccc2C1)c1cccc([N+](=O)[O-])c1	inactive	–
Nc1ccccc1Nc1cc(-c2ccccc2)nn1-c1cccc(Cl)c1	inactive	–
COc1ccc(NC(=S)NN2CCOCC2)cc1OC	inconclusive [inhibitor, single point]	–
Cc1noc(C)c1CSc1nnnn1-c1ccc(Cl)cc1	inconclusive [inhibitor, single point]	–
Cc1noc(C)c1C(c1ccccc1)c1ccccc1	inactive	–
COc1ccc(C(=O)NNC(=O)c2ccc(S(=O)(=O)N3CCOCC3)cc2)cc1	inconclusive [inhibitor, single point]	–
COc1ccc(-c2nc3ccc(C(=O)NCC(OC)OC)cc3nc2-c2ccc(OC)cc2)cc1	inconclusive [inhibitor, partial curve]	–
N#Cc1c(NC(=O)/C=C/c2ccco2)sc2c1CCCC2	active: 31.6 µM	–
COC(=O)Cn1c(=NC(=O)CSC(C)=O)sc2ccccc21	inactive	–
CCOC(=O)C1CCN(C(=O)c2cccc(NS(=O)(=O)c3ccc(F)c(F)c3)c2)CC1	inactive	–
Cc1cccc(NC2=C(Cl)C(=O)OC2OC(C)C)c1 (stereo unspecified)	inactive	–
O=c1c2cc(O)c(O)cc2oc2cc(O)c(C3OC(CO)C(O)C(O)C3O)c(O)c12 (stereo unspecified)	inconclusive [inhibitor, partial curve]	–
O=C(NC(Cc1ccccc1)c1nc2ccccc2[nH]1)C1CC(=O)N(c2ccc3c(c2)OCCO3)C1 (stereo unspecified)	active: 10 µM	–
O=C1CC(=C(c2ccccc2)c2ccccc2)C(=O)N1CCCCN1CCN(c2ccccc2)CC1	inconclusive [inhibitor, partial curve]	–
O=C(c1ccco1)N1CCN(c2ncnc3sc4c(c23)CCC4)CC1	active: 10 µM	–
Cc1ccc(C(=O)Cn2ncsc2=N)cc1	inconclusive [inhibitor, partial curve]	–
Nc1nc(=S)c2[nH]cnc2[nH]1	inconclusive [inhibitor, single point]	–
Cc1occc1-c1nnc(SCC(=O)Nc2ccccc2-c2ccccc2)n1C	active: 22.4 µM	–
COc1ccc2[nH]c(=O)c(CN(C(=O)NC3CCCCC3)C3CCCCC3)cc2c1	inconclusive [inhibitor, single point]	–
CCN(CC)CCn1c(-c2ccc(C)cc2)nc(=S)c2c1CC(C)(C)OC2	inactive	–
O=C(NC(=S)NCCc1ccccc1)C1CCCCC1	inconclusive [inhibitor, single point]	–
O=C(Nc1ccc(-c2nc3ccccc3o2)cc1)c1cc(-n2cnnc2)ccc1Cl	inconclusive [inhibitor, single point]	–
CCN(Cc1cn2cccnc2n1)C1CCCCC1	inconclusive [inhibitor, partial curve]	–
COc1cc(/C=N/Nc2nc3ccccc3[nH]2)cc(OC)c1O	inactive	–

SMILES	Potency	activity, negative = inhibition
CCN(CC)C(=O)CC(c1ccccc1)c1ccco1 (stereo unspecified)	inactive	–
CC(=O)Nc1cc(-c2ccc(Cl)cc2)[nH]n1	inactive	–
CCNS(=O)(=O)c1ccc(C(=O)Nc2ccccc2)cc1	inactive	–
COc1ccc(C(=O)Nc2ccc(Cl)c(S(=O)(=O)Nc3ccccc3OC)c2)cc1	inconclusive [inhibitor, partial curve]	–
Cc1ccc(N2CCN(S(=O)(=O)N3CCCCC3)CC2)c(C)c1	inconclusive [inhibitor, single point]	–
CC1=C(/C=N/Nc2ccc([N+](=O)[O-])cc2[N+](=O)[O-])C(C)(C)CCC1	inconclusive [inhibitor, single point]	–
Cc1ccc(NC2CC(=O)N(CCc3ccccc3)C2=O)cc1 (stereo unspecified)	inconclusive [inhibitor, full curve, poor fit]	–
FC(F)(F)c1nnc2ccc(NCc3ccccc3)nn12	inactive	–
COc1cc2[nH]ccc(=O)c2cc1OC	inactive	–
COCc1cc(=O)[nH]c(/N=C(\N)Nc2cccc(Cl)c2)n1	inactive	–
CS(=O)(=O)N(CC(=O)N1CCC(C(N)=O)CC1)c1cc(C(F)(F)F)ccc1Cl	inactive	–
Cn1cccc1CC(=O)N/N=C/c1cccc2ccccc12	inconclusive [inhibitor, single point]	–
O=C1NC(=S)S/C1=C\c1ccc(SCc2ccco2)o1	active: 0.891 µM	–
CN(CCO)Cc1ncccc1O	–	inactive: -3.19% [at 13.5 µM]
COc1cccc(Cn2c(Oc3cccc(C)c3)nc3c2c(=O)n(C)c(=O)n3C)c1	inconclusive [inhibitor, partial curve]	–
CCCOC(=O)c1ccc(Oc2coc3c(CN(CC)CC)c(O)ccc3c2=O)cc1	inconclusive [inhibitor, partial curve]	–
COc1ccc(NC(=O)Nc2cccs2)cc1OC	active: 22.4 µM	–
COC(=O)c1ccc(NC(=S)NCc2ccco2)cc1	inconclusive [inhibitor, single point]	–
CC(=O)c1ccc(NC(=O)COC(=O)c2ccccc2Sc2ccccc2C#N)cc1	inactive	–
CCCS(=O)(=O)c1c(S(=O)(=O)CCC)c2cc(CC)ccn2c1C(=O)OC	inconclusive [inhibitor, single point]	–
Cc1ccn2c(C(=O)NN=C3CCN(C)CC3)c(C)nc2c1	active: 2.24 µM	–
O=C(CC1C(=O)NCCN1Cc1ccc(F)cc1)NCCCn1cccn1 (stereo unspecified)	inactive	–
COCCCn1c(=O)/c(=C\c2ccccc2OC(F)F)s/c1=C(/C#N)C(=O)N1CCOCC1	active: 6.31 µM	–
COc1ccc2[nH]c(-c3ccc(F)cc3F)cc(=O)c2c1	inactive	–
CCOC(=O)c1c(C)[nH]c(C)c1C(=O)CSc1nc2ccccc2c(=O)n1-c1ccc(Cl)cc1	inconclusive [inhibitor, single point]	–

From PubChem BioAssay AID1030 (National Center for Advancing Translational Sciences (NCATS), 2008)
